Experimental findings from PMC4336329 (PLoS ONE, 2015) are described below.

About 14,000 (4.5%) of roughly 310,000 compounds showed an effect of 50% or more. The effect is printed as a negative number. Some of the results follow.
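Note: peak tail current of the secondary pulse compared with the same well before compound.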

For this test, the target named is human ether-à-go-go-related gene (hERG) potassium channel (human, UniProt Q12809). Nature of the test: primary screen, population patch clamp on CHO cells stably expressing hERG.
Sequence of human ether-à-go-go-related gene (hERG) potassium channel (Q12809 whole entry, looked up): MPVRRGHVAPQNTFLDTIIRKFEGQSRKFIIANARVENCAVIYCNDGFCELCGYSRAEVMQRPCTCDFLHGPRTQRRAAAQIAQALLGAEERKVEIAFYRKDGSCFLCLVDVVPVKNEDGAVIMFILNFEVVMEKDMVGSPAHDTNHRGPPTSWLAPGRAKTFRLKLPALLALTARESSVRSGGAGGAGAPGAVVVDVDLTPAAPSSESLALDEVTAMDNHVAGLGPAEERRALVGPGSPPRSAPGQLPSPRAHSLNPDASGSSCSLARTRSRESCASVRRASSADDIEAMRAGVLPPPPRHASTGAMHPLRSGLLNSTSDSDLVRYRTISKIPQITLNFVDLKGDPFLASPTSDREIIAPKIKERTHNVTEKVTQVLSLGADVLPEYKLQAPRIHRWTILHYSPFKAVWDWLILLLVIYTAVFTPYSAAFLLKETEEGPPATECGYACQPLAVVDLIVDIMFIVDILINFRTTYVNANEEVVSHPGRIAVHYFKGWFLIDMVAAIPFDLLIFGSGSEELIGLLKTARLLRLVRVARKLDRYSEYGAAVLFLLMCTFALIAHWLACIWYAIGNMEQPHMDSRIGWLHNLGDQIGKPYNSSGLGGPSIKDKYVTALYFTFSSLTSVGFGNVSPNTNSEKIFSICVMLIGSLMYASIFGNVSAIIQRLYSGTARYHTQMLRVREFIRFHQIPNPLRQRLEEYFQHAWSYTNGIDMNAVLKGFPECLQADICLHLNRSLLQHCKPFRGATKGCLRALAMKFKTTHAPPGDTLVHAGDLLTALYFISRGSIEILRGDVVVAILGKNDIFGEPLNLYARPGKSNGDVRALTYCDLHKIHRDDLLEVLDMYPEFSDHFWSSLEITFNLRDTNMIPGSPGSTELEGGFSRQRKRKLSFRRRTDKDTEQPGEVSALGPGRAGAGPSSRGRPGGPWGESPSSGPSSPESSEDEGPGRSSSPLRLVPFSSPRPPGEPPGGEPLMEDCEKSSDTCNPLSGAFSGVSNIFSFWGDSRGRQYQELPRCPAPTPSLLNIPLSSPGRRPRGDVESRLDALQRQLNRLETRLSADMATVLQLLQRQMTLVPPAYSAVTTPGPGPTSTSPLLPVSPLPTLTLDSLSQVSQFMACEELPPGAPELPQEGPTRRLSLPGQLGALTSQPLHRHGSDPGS
As to `CCOC(=O)C(C(=O)OCC)C(Nc1ccccc1)c1ccccc1` (stereo not drawn), the “hERG current change (%, negative = inhibition) at 10uM” value was 7.3%. With `CC(=O)Nc1cc(-c2ccccc2)ccc1O` the figure was 12.6%; with `COc1cc(CN2CCCC(N3CCN(c4ccccc4C)CC3)C2)ccc1O` (stereo not drawn), -27%.

`CCOc1cccnc1Sc1ccccc1`: the “hERG current change (%, negative = inhibition) at 10uM” value is recorded as -1.39%. The value for `COc1cc(C(=O)NCCC(=O)N2CCC3(CC2)NCCc2[nH]cnc23)cc(OC)c1OC` was 3.36%; that for `Cn1c(CC(=O)Nc2ccccc2F)nnc1SCC(=O)NC1CCCC1` was 11%; that for `CC(C)(C)c1ccc(C(=O)O/N=C(\N)c2ccccc2)cc1` was 21.1%.

On to `CCOC(=O)N1CCC(NC(=O)c2cccc3c2C(=O)N(c2ccc(OC)cc2)C3)CC1`, for which the “hERG current change (%, negative = inhibition) at 10uM” value was -58.3%. The value for `O=C(Cc1nc(=O)c2ccccc2s1)Nc1ccccc1` was 18.6%. With `CC(=O)N(Cc1cccs1)Cc1cc2cc(C)c(C)cc2nc1Cl` the figure was -11.6%; with `Cc1[nH]c2ccccc2c1C(=O)C(=O)NCc1ccco1`, 23.2%; with `CCOCCOc1cccc(C(=O)NC(c2ccccc2)c2ccccc2)c1`, 17.7%. With `Cc1cc(-c2ccccc2)nc(-c2ccccc2)c1C` the figure was 5.41%; with `Cc1ccc2cc(C)c(Sc3nnnn3-c3ccccc3)nc2c1`, -25.6%; with `Cc1cccc(NCc2nc(SCC(N)=O)n[nH]2)c1`, -6.1%. With `CCC(=O)c1ccccc1OCCN1CCN(Cc2ccccc2)CC1.O=C(O)C(=O)O`, the “hERG current change (%, negative = inhibition) at 10uM” value is recorded as -59.1%. With `Cc1ccc(-c2noc(CCC(=O)NCC3CCCO3)n2)cc1` (stereo not drawn) the figure was 2%; with `O=C(NC1CCN(C(=O)NCc2ccccc2)CC1)c1ccco1`, 11.5%; with `CCCCN1C(C(=O)Nc2cc(C)on2)=C(O)c2ccccc2S1(=O)=O`, 19.2%. With `CCOC(=O)c1c(C)n(CC(O)CN2CCOCC2)c2cc(Br)c(OC)cc12.Cl` (stereo not drawn) the figure was -24%; with `O=[N+]([O-])c1ccc(N2CCN(S(=O)(=O)c3ccc(Cl)cc3)CC2)cc1NCc1cccnc1`, 2.59%. The value for `O=C(NC1CCS(=O)(=O)C1)c1ccc(S(=O)(=O)N2CCCC2)cc1` (stereo not drawn) was 9.83%; that for `Cc1cccc(NC(=O)CSc2nc3ccc(N4C(=O)c5ccccc5C4=O)cc3s2)c1C` was 16.7%.

As for `CC1(C)C2CCC1(CS(=O)(=O)N1CCOCC1)C(=O)C2` (stereo not drawn), the “hERG current change (%, negative = inhibition) at 10uM” value is given as -1.75%. The value for `COc1ccc(OC)c(NC(=O)N2CCCc3ccccc32)c1` was -3.9%.

On to `CC(Sc1nccn1C)C(=O)Nc1ccccc1` (stereo not drawn), for which the “hERG current change (%, negative = inhibition) at 10uM” value turned out to be 12.8%. With `CC(=O)Nc1ccc(NC(=O)C(C)OC(=O)CCc2nc3ccccc3s2)cc1` (stereo not drawn) the figure was 8.54%; with `Cl.Fc1ccc2c(c1)nnn2C1CCN(Cc2nnnn2C2CCCCC2)CC1`, -38.1%. `O=C1[C@H]2[C@@H](/C=C/c3ccccc3)N3C(=O)CN(CC4CC4)C(=O)[C@@]3(Cc3ccccc3)[C@H]2C(=O)N1c1ccccc1`: the “hERG current change (%, negative = inhibition) at 10uM” value is listed as -8.66%. `COCCNC(=O)/C(C#N)=C/c1ccc(C)o1`: the “hERG current change (%, negative = inhibition) at 10uM” value is on record as 4.2%. With `COC(=O)C1=C(C)NC(C)=C(C(=O)OC)C1c1ccc(N(C)C)cc1` the figure was -19%; with `Cc1cccn(Cc2c(Cl)cccc2Cl)c1=O`, -9.53%.

Regarding `COCCNC(=O)CSc1nnc(NC(=O)C2CC(=O)N(c3ccccc3OC)C2)s1` (stereo not drawn), the “hERG current change (%, negative = inhibition) at 10uM” value is 17.5%. As to `COC(=O)C1=C(COc2ccccc2)NC(=O)NC1c1ccc(Cl)cc1` (stereo not drawn), the “hERG current change (%, negative = inhibition) at 10uM” value came out at 14.2%.

As to `COc1cc(S(=O)(=O)N2CCN=C2c2ccccc2)ccc1F`, the “hERG current change (%, negative = inhibition) at 10uM” value is given as -4.75%. With `COc1ccc(-c2nc3c(n2O)CCCC3=O)cc1OC` the figure was 10%; with `CC(NC(=O)Cc1ccccc1[N+](=O)[O-])c1ccccc1` (stereo not drawn), 0.588%; with `Cc1ccc(C2CC2C(=O)NN)cc1` (stereo not drawn), -0.68%. The value for `COCCn1nnnc1C(CC(C)C)N1CCN(c2ccccc2)CC1` (stereo not drawn) was 5.44%; that for `COc1ccccc1C1/C(=C(\O)c2ccc3c(c2)OCCO3)C(=O)C(=O)N1CCCn1ccnc1` (stereo not drawn) was 21.8%; that for `CN(C(=O)COC(=O)CCc1c[nH]c2ccccc12)c1ccccc1` was 11.1%. The value for `COc1cccc(C(=O)N(Cc2ccco2)c2c(N)n(Cc3ccccc3)c(=O)[nH]c2=O)c1` was 10.1%; that for `COCCC(=O)N1CCCC(C(=O)c2ccc(C(F)(F)F)cc2)C1` (stereo not drawn) was -1.83%. `Cc1cc(C)cc(NC(=O)c2nccnc2C(=O)O)c1`: the “hERG current change (%, negative = inhibition) at 10uM” value amounted to 5.34%. With `Cc1ccc(S(=O)(=O)C2(C(=O)NC3CCCCC3C)CC2)cc1` (stereo not drawn) the figure was 7.09%; with `COC(=O)C1N[C@@H]([C@@H](NC(=O)COc2ccccc2)C(=O)NCc2ccc(OC)cc2)SC1(C)C` (stereo partly drawn), -12.5%; with `O=S(=O)(c1cnc(Cl)c(Br)c1)N1CCCCCC1`, -8.5%. On to `COc1ccc(S(=O)(=O)N2CCN(C3Cc4ccccc4C3)CC2)cc1`, for which the “hERG current change (%, negative = inhibition) at 10uM” value was found to be 11.8%. The value for `Cc1cc(Nc2cccc(Cl)c2)nc(NCc2ccccc2)n1` was 8.73%; that for `Cc1ccc(C2=NN(C(=O)CSc3nnnn3C)C(c3ccco3)C2)cc1` (stereo not drawn) was 17.1%.

In the case of `Oc1ccc2nc(Cc3ccccc3)[nH]c2c1`, the “hERG current change (%, negative = inhibition) at 10uM” value is given as 13.2%. As to `Cc1ccc(NS(=O)(=O)c2ccccc2F)cc1S(=O)(=O)N1CCCCC1`, the “hERG current change (%, negative = inhibition) at 10uM” value is listed as -21.4%.

As for `Cc1ccc(C(=O)Nc2ccccc2C(=O)NCc2ccco2)cc1S(=O)(=O)N1CCCCC1`, the “hERG current change (%, negative = inhibition) at 10uM” value was -13.5%. The value for `O=c1cc(-c2ccccc2)[nH]c2[nH]n(-c3ccccc3)c(=O)c12` was -2.82%. With `Cc1cccc(C(=O)OCC(=O)c2ccc3c(c2)OCO3)c1O` the figure was 5.7%; with `CC(c1nc2ccccc2c(=O)[nH]1)N1CCOCC1` (stereo not drawn), 7.09%. The value for `CCC(=O)N1c2ccccc2[C@@H](N(C(C)=O)c2ccccc2)C[C@H]1C` was 0.489%.
